The list shows a part of the results. These are further read-outs of the screen, such as a control signal, another cell line or another target. No call is given for them.
What was measured:
Assay in all cases: Primary Screen for Target Class Profiling of Small Molecule Inhibitors of Methyltransferases
[1] = molecular target: Glycine N-methyltransferase (Homo sapiens) (UniProt Q14749); details: purified enzyme, MTase-Glo SAH luminescence; measured here: GNMT inhibition; at 40 µM; stronger effect = lower value
Summary of the method: (§1)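 Each enzyme was assayed with SAM and its substrate. SAH formation detected by MTase-Glo luminescence; single-point 40 uM screen[…].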

[2] = molecular target: Guanidinoacetate N-methyltransferase (Homo sapiens) (UniProt Q14353); details: purified enzyme, MTase-Glo SAH luminescence; measured here: GAMT inhibition; at 40 µM; stronger effect = lower value
Summary of the method: as §1

[3] = molecular target: Histamine N-methyltransferase (Homo sapiens) (UniProt P50135); details: purified enzyme, MTase-Glo SAH luminescence; measured here: HNMT inhibition; at 40 µM; stronger effect = lower value
Summary of the method: as §1

[4] = molecular target: Nicotinamide N-methyltransferase (Homo sapiens) (UniProt P40261); details: purified enzyme, MTase-Glo SAH luminescence; measured here: NNMT inhibition; at 40 µM; stronger effect = lower value
Summary of the method: as §1

[5] = molecular target: Phenylethanolamine N-methyltransferase (Homo sapiens) (UniProt P11086); details: purified enzyme, MTase-Glo SAH luminescence; measured here: PNMT inhibition; at 40 µM; stronger effect = lower value
Summary of the method: as §1
% is set by controls: 0 for no effect and ±100 for the full control effect.

Structure (SMILES)	activity change, negative = inhibition [1] [%]	activity change, negative = inhibition [2] [%]	activity change, negative = inhibition [3] [%]	activity change, negative = inhibition [4] [%]	activity change, negative = inhibition [5] [%]
O=C(CCc1nnc2n(CCc3ccccc3)c(=O)c3ccccc3n12)NCc1cccnc1	-13.4	0	7.69	9.65	2.84
CC(=O)OC1C(O)C(C)(O)C(/C=C/C(=O)O)C2(C)CCCC(C)(C)C12 (stereo not drawn)	-0.915	-13.3	-0.851	-25.2	-1.93
CC(C)C1=NOC2(CCN([S+](=O)([O-])c3cccs3)C2)C1 (stereo not drawn)	-7.63	-10.4	-4.35	-15.9	-21.5
O=S(=O)(Nc1ccccc1F)c1ccc2[nH]c3c(c2c1)CCCC3	-6.26	2.66	-0.793	-6.79	0.016
Cc1nnc2n(-c3ccccc3)c(=O)c3ccc(C(=O)NCc4ccc5c(c4)OCO5)cc3n12	1.29	0.884	-6.59	0.889	-10.4
O=C(C[C@@H]1CCNC[C@@H]1Cc1cc(CN2CCCCC2)on1)NCc1cccs1	-0.861	-2.68	-2.35	-9.2	9.71
CN(C)c1nc(-c2ccccc2)nc2c1CCN(C(=O)C1CCOC1)C2 (stereo not drawn)	-9.01	-7.6	-6.2	-18.8	-11
Cc1ccc(C)c(N2C(=O)c3cc(-c4ccco4)nn3CC2(C)C(=O)NC2CCCCC2)c1 (stereo not drawn)	-12.9	2.4	-26.6	-5.03	-6.06
COc1ccc(NS(=O)(=O)c2ccc3[nH]c(=O)[nH]c3c2)cc1OC	-1.34	0	2.8	-3.36	-16.2
CCOc1ccc(CNC(=O)c2cc3n(n2)CC(C)(C(=O)NCc2ccccc2)N(C)C3=O)cc1OC (stereo not drawn)	-0.221	2.7	-0.102	9.27	2.02
Fc1ccc(C(c2ccc(F)cc2)N2CCN(C/C=C/c3ccccc3)CC2)cc1	-2.95	9.84	3.5	-3.44	10.9
Oc1ccc([C@H]2COc3cc(O)ccc3C2)cc1	3.42	8.02	4.56	-9.78	5.05
COCCCN(CCC(=O)NCc1ccc2c(c1)OCO2)C(=O)c1cc(C)oc1C	-0.314	1.02	3.15	-3.02	-1.61
O=C(CCc1conc1-c1ccccc1F)NCc1cccc(C(F)(F)F)c1	-7.14	-9.63	-2.62	-19.4	-15.6
CCC(CC)C(=O)Nc1sc2c(c1C#N)CCC(C(C)(C)CC)C2 (stereo not drawn)	6.8	-7.36	9.59	-21.9	-4.42
CCS(=O)(=O)N1CCC2(CC1)CN(c1cccc(F)c1)C2c1ccccc1 (stereo not drawn)	-6.31	-10.6	-3.65	-10.3	-9.1

Structure (SMILES)	activity change, negative = inhibition [1] [%]	activity change, negative = inhibition [2] [%]	activity change, negative = inhibition [3] [%]	activity change, negative = inhibition [4] [%]	activity change, negative = inhibition [5] [%]
CCn1nc(C)cc1C(=O)N1CCOC[C@H](Oc2cccnc2)C1	0.789	5.09	-0.006	2.95	6.51
Cc1ccccc1Cn1nc2n(CCCOC(C)C)c(=O)c3ccccc3n2c1=O	-7.24	-0.53	5.36	-18.7	-5.4
O=C(CCn1ccc2cc(S(=O)(=O)N3CCCCC3)ccc21)N1CCC(Cc2ccccc2)CC1	-0.581	0	-0.252	-0.247	-0.22
O=C(Cn1ccn2nc(-c3ccc(F)cc3)c(CO)c2c1=O)Nc1ccc(F)cc1F	-3.11	-1.08	-3.29	-1.25	-6.27
Cc1nc(N2CCCC2)nc(N2CCC3(CC2)OCCCC3O)c1C (stereo not drawn)	-0.204	-0.005	-6.79	-1.63	-5.3
Cc1cc(Nc2nn(-c3ccccc3)c(=O)c3ccccc23)n[nH]1	–	-3.79	–	-16.2	-0.673
COCCCNC(=O)C1(C)Cn2nc(-c3ccccc3)cc2C(=O)N1c1cccc(C)c1C (stereo not drawn)	6.77	4.57	5.98	9.77	-0.234
CCCCN1C(=O)c2cc(C(=O)N3CCC(N4CCCCC4)CC3)nn2CC1(C)C(=O)NC1CCCC1 (stereo not drawn)	5.76	0	-0.571	5.95	4.69
CC(=O)C1=C(C)N(c2cccc(C(F)(F)F)c2)C(=O)N[C@H]1c1ccc(C#N)nc1	-0.071	4.08	0.135	-14.8	-7.04
O=[S+]([O-])(NCC1CN(Cc2ccc3[nH]ccc3c2)CC12CN(c1ccccc1)C2)c1ccccc1 (stereo not drawn)	-4.19	-5.44	-6.66	-11.7	-6.75
CC(CCc1ccccc1)N1C(=O)c2cc3sccc3n2CC1(C)C(=O)NC1CCCCC1 (stereo not drawn)	-5.55	5.18	-1.69	-0.807	-0.598
CC(=O)Nc1c2n(c3ccccc13)CC(C)(C(=O)NC1CCCC1)N(Cc1ccccc1C)C2=O (stereo not drawn)	4	3.56	0.792	9.49	4.13
Cc1ccccc1CSc1nnc2n(CCCOC(C)C)c(=O)c3ccccc3n12	-8.52	0	6.14	-8.84	2.67
Cc1cnc(-c2ccccc2)n1C1CCN(S(C)(=O)=O)CC1	-5.59	-7.01	-2.15	-13.8	-7.71
CCCC1c2ccc(C)n2CCN1C(=O)NCc1ccc(C)cc1 (stereo not drawn)	1.48	4.46	1.88	2.77	-1.28

Source: PubChem BioAssay AID1745853 (National Center for Advancing Translational Sciences (NCATS), 2022)
